Our source for the survival values is PubChem BioAssay AID463173 (ICCB-Longwood Screening Facility, Harvard Medical School, 2010).

Among all 52,000 compounds or so, about 4,300 (8.3%) were called active. Rule as the data show it: active = survival mostly below about 52% (no sharp cut-off); inactive = mostly above about 56%. This is one part of the list.

For this assay, the system named is DeltatarO mutant. In words: S. aureus survival, RN4220 and DeltatarO strains – OD600, teichoic acid synthesis inhibitors, primary screen (AID 463173). The following applies: S. aureus RN4220 wild type/DeltatarO growth, OD600, 18 h, hits give low values, screened at 18.75 µg/mL (by protocol).
Regarding `COc1ccc(S(=O)(=O)N2CCC(C(=O)Nc3cc(C(F)(F)F)ccc3Cl)CC2)cc1`, the survival was inactive: 105%.

On to `COc1ccc(OC)c2sc(N3CCN(C(=O)C4COc5ccccc5O4)CC3)nc12` (stereo not drawn), for which the survival is inactive: 88%.

`COc1cccc(Cc2nc3ccccc3nc2SCC(=O)Nc2cc(OC)ccc2OC)c1`: the survival is active: 47%.

For the compound `CCC(C)NC(=O)Cn1c(=O)n(Cc2ccc(C(=O)NCc3ccc(C)cc3)cc2)c(=O)c2ccccc21` (stereo not drawn), the survival is inactive: 94%.

Take `CCOc1cc(-c2ccc(OC(=O)c3ccccc3)c(OC)c2)cc(=O)c2c(C)oc(C)c12`: the survival is inactive: 89%.

For `CCOCCn1ccc2c(OCC(=O)Nc3cccc(F)c3)cccc2c1=O`, the survival was inactive: 91%.

For `CCOc1ccccc1CNCCSc1nnnn1C`, the survival is inactive: 74%.

Regarding `CS(=O)(=O)N1CCc2cc(C(=O)Nc3ccc(C(F)(F)F)cc3)ccc21`, the survival was inactive: 76%.

On to `CCCN1c2cccc3cccc(c23)S1(=O)=O`, for which the survival was inactive: 101%.

Turning to `Cc1ccc(CNC(=O)CSc2nc3n[nH]c(C)c3c(=N)n2-c2ccccc2Cl)cc1`, the survival is inactive: 94%.

`O=C(Nc1ccccc1C(=O)OCc1cc(=O)n2nc(C3CC3)sc2n1)c1cccc(F)c1`: the survival is inactive: 73%.

In the case of `Cc1ccc(S(=O)(=O)C(CNC(=O)COc2ccccc2)c2ccco2)cc1` (stereo not drawn), the survival is inactive: 122%.

As to `COc1ccc(C2CC3(CC(C)(C)NC(=O)N3)Oc3cc(O)ccc32)cc1` (stereo not drawn), the survival is inactive: 102%.

With `CCCN(CCC)C(=O)Cn1c(=O)n(CCCCCC(=O)NCc2ccccc2Cl)c(=O)c2sccc21`, the survival is inactive: 81%.

In the case of `CCCOc1ccc(-c2cc(C(F)(F)F)c(C#N)c(SCCC(=O)O)n2)cc1`, the survival is active: 29%.

Consider `CC(C)CCNC(=O)C(Cc1ccccc1)NS(=O)(=O)c1ccc2c(c1)c(=O)n(C)c(=O)n2C` (stereo not drawn), for which the survival was inactive: 84%.

As to `CCOc1ccc(NCc2nc3ccccc3n2CCOc2ccc(C)cc2)cc1`, the survival is active: 1%.

With `CC(=O)N1CCCc2cc(S(=O)(=O)N3CCCC(C(=O)NCc4ccc(C)cc4)C3)ccc21` (stereo not drawn), the survival was inactive: 84%.

Regarding `O=C(NN=C1CCCCC1)C1CC1c1ccccc1` (stereo not drawn), the survival was inactive: 101%.

In the case of `CN(C)c1nc(N(C)C)nc(N2CC(=O)N(N)C2=N)n1`, the survival is inactive: 76%.

Turning to `CCc1nn2c(=O)c(S(=O)(=O)Nc3ccc(C(C)C)cc3)c(C)nc2s1`, the survival is inactive: 69%.

Consider `CCc1ccc(-n2nc3ccc(NC(=O)COc4ccc(OC)cc4)cc3n2)cc1`, for which the survival is inactive: 78%.

Consider `COc1cccc(Cn2c(CNS(=O)(=O)c3ccc(Cl)s3)nc3cccnc32)c1`, for which the survival is inactive: 88%.

With `O=C(CSc1nc2c(c(=O)[nH]1)CN(Cc1ccc3c(c1)OCO3)CC2)Nc1ccccc1Cl`, the survival was inactive: 82%.

With `COc1ccccc1CNC(=O)CSc1nnc(C)c2c(C)n(-c3ccccc3)nc12`, the survival is inactive: 99%.

Regarding `O=C(O)c1csc(Br)c1Br`, the survival was inactive: 80%.

Take `O=C(Nc1ccc(F)c(Cl)c1)N1CCC(CN2CCOCC2)CC1`: the survival was inactive: 89%.

Consider `Cc1nc2sccn2c(=O)c1S(=O)(=O)Nc1cc(C(F)(F)F)ccc1Cl`, for which the survival is active: 69%.

As to `Cc1ccccc1OCCCCn1nnc2sc3c(c2c1=O)CCC(C)C3` (stereo not drawn), the survival is inactive: 65%.

Consider `CCOCCCn1c(SCC(=O)Nc2ccccc2Cl)nc2c(oc3ccccc32)c1=O`, for which the survival is inactive: 78%.

Take `Cc1ccc(CCNC(=O)c2ccc3c(c2)nc2n3CCOC2)cc1`: the survival is inactive: 86%.

In the case of `OCCN(CCO)c1nc2ccccc2[nH]1`, the survival was inactive: 93%.

In the case of `COCCNC(=O)c1ccc(-c2nc(CS(=O)(=O)c3ccccc3)c(C)o2)cc1`, the survival was inactive: 119%.

`CCOC(=O)c1ccc(NC(=O)C(CC)Sc2nc(N)cc(N)n2)cc1` (stereo not drawn): the survival is inactive: 105%.

Regarding `COc1ccccc1C(=O)Nc1nnc2n1CCS2`, the survival was inactive: 69%.

In the case of `COc1cccc2c1cc1c(=O)n(CC(=O)NCc3ccco3)nc(C)n12`, the survival is inactive: 88%.

As for `Cc1ccc(CCNC(=O)CN(c2ccc(C)cc2)S(=O)(=O)N(C)C)cc1`, the survival was inactive: 78%.

Turning to `CC(C)OCc1cc(CN2CCN(c3cccc(C(F)(F)F)c3)CC2)c(O)c2ncccc12`, the survival is inactive: 52%.

For the compound `Cc1c(Cl)cccc1NC(=O)CSc1nc(=O)n(Cc2ccco2)c2c1CCC2`, the survival was inactive: 98%.

For the compound `CCCCN(C)C(=O)CSc1nc2ccccc2nc1Cc1ccc(C)cc1`, the survival is active: 32%.

Take `CCN(Cc1ccccc1)Cc1nnnn1CCOC`: the survival was inactive: 71%.

For the compound `Cc1ccc2[nH]c(=O)c3cc(C(=O)NC4CCC(C)CC4)sc3c2c1` (stereo not drawn), the survival was inactive: 56%.

For the compound `CCOc1ccc(NC(=O)c2cc(S(=O)(=O)N3CCN(c4ccccc4F)CC3)ccc2F)cc1`, the survival was inactive: 69%.

Regarding `COc1ccccc1CNC(=O)C(=O)NCC(c1cccs1)S(=O)(=O)c1cccs1` (stereo not drawn), the survival is inactive: 90%.

Take `CCSc1nnc2n(-c3ccccc3)c(=O)c3c4c(sc3n12)CCCC4`: the survival was inactive: 95%.

In the case of `CCOc1ccc(Nc2c(S(=O)(=O)c3ccc(C)cc3)cnc3ccc(F)cc23)cc1`, the survival was inactive: 64%.

In the case of `Cc1ccc2oc(C(=O)N(Cc3sccc3C)C3CCS(=O)(=O)C3)c(C)c2c1` (stereo not drawn), the survival was inactive: 65%.

For `COc1ccc(-n2c(=O)c3c4c(sc3n(C)c2=O)CN(C(C)=O)CC4)cc1`, the survival is inactive: 86%.

`O=c1cc(-c2ccccc2)n2c(SCc3ccccc3Cl)nnc2[nH]1`: the survival is inactive: 95%.

Take `O=C1C(=O)N(C2CCN(C(=O)c3ccccc3F)CC2)CCN1Cc1ccc(F)cc1`: the survival was inactive: 67%.

Turning to `CCCCC1(C(=O)OC)NC(c2ccc(O)cc2)C2C(=O)N(c3ccccc3)C(=O)C21` (stereo not drawn), the survival is inactive: 83%.

Take `COc1ccc(Cl)cc1NC(=O)CSc1ccc2nnc(CCNS(=O)(=O)c3ccccc3)n2n1`: the survival was inactive: 53%.

Take `Cc1ccc(-c2noc(CSc3nnc(C)n3-c3ccc(C)c(C)c3)n2)cc1`: the survival was inactive: 75%.

For `Cc1cc(OCC(=O)N/N=C/c2ccc(I)o2)cc(C)c1Cl`, the survival was inactive: 75%.

For the compound `CCCCCNC(=O)C1CCC(Cn2c(=O)c3sccc3n(CC(=O)NCc3cccc(OC)c3OC)c2=O)CC1` (stereo not drawn), the survival was inactive: 81%.

Regarding `CN(C)c1ccc(CNC(=O)C2CCN(Cc3cc4ccccc4n3Cc3ccccc3)CC2)cc1`, the survival is inactive: 94%.

Consider `Cc1sc2ccccc2[n+]1CCCO`, for which the survival is inactive: 76%.

In the case of `Cc1cccc(N(C)S(=O)(=O)c2cc3[nH]c(=O)c(=O)[nH]c3cc2C)c1`, the survival is inactive: 88%.
